{"source": "paper PMC9911399", "about": "“Two distinct binding modes provide the RNA-binding protein RbFox with extraordinary sequence specificity”", "binders": {"B1": {"name": "UUUGCGC (DNA:RNA)", "RNA": "GGGAGACCGGAAUUCAGAUUGUCCUUUGCGCUUAAAUCCCGUCGUAGCCACCA", "DNA 1": "CAATCTGAATTCCGGTCTCCC", "DNA 2": "TGGTGGCTACGACGGGATT"}, "B2": {"name": "UGUCUCA (DNA:RNA)", "RNA": "B1 RNA with U26G, G28C, C29U, G30C, C31A", "DNA 1": "CAATCTGAATTCCGGTCTCCC", "DNA 2": "TGGTGGCTACGACGGGATT"}, "B3": {"name": "ACCGGAG (DNA:RNA)", "RNA": "B1 RNA with U25A, U26C, U27C, C29G, G30A, C31G", "DNA 1": "CAATCTGAATTCCGGTCTCCC", "DNA 2": "TGGTGGCTACGACGGGATT"}, "B4": {"name": "GUACCGG (DNA:RNA)", "RNA": "B1 RNA with U25G, U27A, G28C, C31G", "DNA 1": "CAATCTGAATTCCGGTCTCCC", "DNA 2": "TGGTGGCTACGACGGGATT"}, "B5": {"name": "GUGAAUA (DNA:RNA)", "RNA": "B1 RNA with U25G, U27G, G28A, C29A, G30U, C31A", "DNA 1": "CAATCTGAATTCCGGTCTCCC", "DNA 2": "TGGTGGCTACGACGGGATT"}, "B6": {"name": "CCAUUGG (DNA:RNA)", "RNA": "B1 RNA with U25C, U26C, U27A, G28U, C29U, C31G", "DNA 1": "CAATCTGAATTCCGGTCTCCC", "DNA 2": "TGGTGGCTACGACGGGATT"}, "B7": {"name": "GACUCCA (DNA:RNA)", "RNA": "B1 RNA with U25G, U26A, U27C, G28U, G30C, C31A", "DNA 1": "CAATCTGAATTCCGGTCTCCC", "DNA 2": "TGGTGGCTACGACGGGATT"}, "B8": {"name": "UCCCAAG (DNA:RNA)", "RNA": "B1 RNA with U26C, U27C, G28C, C29A, G30A, C31G", "DNA 1": "CAATCTGAATTCCGGTCTCCC", "DNA 2": "TGGTGGCTACGACGGGATT"}, "B9": {"name": "AGCUUUA (DNA:RNA)", "RNA": "GGGAGACCGGAAUUCAGAUUGUCCAGCUUUAUUAAAUCCCGUCGUAGCCACCA", "DNA 1": "CAATCTGAATTCCGGTCTCCC", "DNA 2": "TGGTGGCTACGACGGGATT"}, "B10": {"name": "UCGUGCG (DNA:RNA)", "RNA": "B9 RNA with A25U, G26C, C27G, U29G, U30C, A31G", "DNA 1": "CAATCTGAATTCCGGTCTCCC", "DNA 2": "TGGTGGCTACGACGGGATT"}, "B11": {"name": "CUCACUC (DNA:RNA)", "RNA": "B1 RNA with U25C, U27C, G28A, G30U", "DNA 1": "CAATCTGAATTCCGGTCTCCC", "DNA 2": "TGGTGGCTACGACGGGATT"}, "B12": {"name": "GAUUGAA (DNA:RNA)", "RNA": "B9 RNA with A25G, G26A, C27U, U29G, U30A", "DNA 1": "CAATCTGAATTCCGGTCTCCC", "DNA 2": "TGGTGGCTACGACGGGATT"}, "B13": {"name": "CAGCACG (DNA:RNA)", "RNA": "GGGAGACCGGAAUUCAGAUUGUCCCAGCACGUUAAAUCCCGUCGUAGCCACCA", "DNA 1": "CAATCTGAATTCCGGTCTCCC", "DNA 2": "TGGTGGCTACGACGGGATT"}, "B14": {"name": "CAUUGUU (DNA:RNA)", "RNA": "B9 RNA with A25C, G26A, C27U, U29G, A31U", "DNA 1": "CAATCTGAATTCCGGTCTCCC", "DNA 2": "TGGTGGCTACGACGGGATT"}, "B15": {"name": "AGCAGGG (DNA:RNA)", "RNA": "B9 RNA with U28A, U29G, U30G, A31G", "DNA 1": "CAATCTGAATTCCGGTCTCCC", "DNA 2": "TGGTGGCTACGACGGGATT"}, "B16": {"name": "GGCAGGG (DNA:RNA)", "RNA": "B9 RNA with A25G, U28A, U29G, U30G, A31G", "DNA 1": "CAATCTGAATTCCGGTCTCCC", "DNA 2": "TGGTGGCTACGACGGGATT"}, "B17": {"name": "AGUAGAU (DNA:RNA)", "RNA": "B9 RNA with C27U, U28A, U29G, U30A, A31U", "DNA 1": "CAATCTGAATTCCGGTCTCCC", "DNA 2": "TGGTGGCTACGACGGGATT"}, "B18": {"name": "UCUGUAC (DNA:RNA)", "RNA": "B1 RNA with U26C, C29U, G30A", "DNA 1": "CAATCTGAATTCCGGTCTCCC", "DNA 2": "TGGTGGCTACGACGGGATT"}, "B19": {"name": "GGCGAGA (DNA:RNA)", "RNA": "B9 RNA with A25G, U28G, U29A, U30G", "DNA 1": "CAATCTGAATTCCGGTCTCCC", "DNA 2": "TGGTGGCTACGACGGGATT"}, "B20": {"name": "AUUCUCA (DNA:RNA)", "RNA": "B9 RNA with G26U, C27U, U28C, U30C", "DNA 1": "CAATCTGAATTCCGGTCTCCC", "DNA 2": "TGGTGGCTACGACGGGATT"}, "B21": {"name": "CAGAUAC (DNA:RNA)", "RNA": "B13 RNA with C28A, A29U, C30A, G31C", "DNA 1": "CAATCTGAATTCCGGTCTCCC", "DNA 2": "TGGTGGCTACGACGGGATT"}, "B22": {"name": "CGAGUAC (DNA:RNA)", "RNA": "B9 RNA with A25C, C27A, U28G, U30A, A31C", "DNA 1": "CAATCTGAATTCCGGTCTCCC", "DNA 2": "TGGTGGCTACGACGGGATT"}, "B23": {"name": "ACCAGCC (DNA:RNA)", "RNA": "B9 RNA with G26C, U28A, U29G, U30C, A31C", "DNA 1": "CAATCTGAATTCCGGTCTCCC", "DNA 2": "TGGTGGCTACGACGGGATT"}, "B24": {"name": "AAGUGCG (DNA:RNA)", "RNA": "B13 RNA with C25A, C28U, A29G", "DNA 1": "CAATCTGAATTCCGGTCTCCC", "DNA 2": "TGGTGGCTACGACGGGATT"}, "B25": {"name": "AGCGAGC (DNA:RNA)", "RNA": "B9 RNA with U28G, U29A, U30G, A31C", "DNA 1": "CAATCTGAATTCCGGTCTCCC", "DNA 2": "TGGTGGCTACGACGGGATT"}, "B26": {"name": "UUGCACC (DNA:RNA)", "RNA": "B13 RNA with C25U, A26U, G31C", "DNA 1": "CAATCTGAATTCCGGTCTCCC", "DNA 2": "TGGTGGCTACGACGGGATT"}, "B27": {"name": "GACAUAG (DNA:RNA)", "RNA": "B9 RNA with A25G, G26A, U28A, U30A, A31G", "DNA 1": "CAATCTGAATTCCGGTCTCCC", "DNA 2": "TGGTGGCTACGACGGGATT"}, "B28": {"name": "GAUAGGG (DNA:RNA)", "RNA": "B13 RNA with C25G, G27U, C28A, A29G, C30G", "DNA 1": "CAATCTGAATTCCGGTCTCCC", "DNA 2": "TGGTGGCTACGACGGGATT"}, "B29": {"name": "GGGUAUU (DNA:RNA)", "RNA": "B9 RNA with A25G, C27G, U29A, A31U", "DNA 1": "CAATCTGAATTCCGGTCTCCC", "DNA 2": "TGGTGGCTACGACGGGATT"}, "B30": {"name": "UCUGCAU (DNA:RNA)", "RNA": "B1 RNA with U26C, G30A, C31U", "DNA 1": "CAATCTGAATTCCGGTCTCCC", "DNA 2": "TGGTGGCTACGACGGGATT"}, "B31": {"name": "AGUCGGG (DNA:RNA)", "RNA": "B9 RNA with C27U, U28C, U29G, U30G, A31G", "DNA 1": "CAATCTGAATTCCGGTCTCCC", "DNA 2": "TGGTGGCTACGACGGGATT"}}, "note": "Positions count from the first letter of the chain named. This is one part of the list."}
{"molecular_target": "T1, RBFOX1 RRM (Homo sapiens, UniProt Q9NWB1 109-208)", "T1 sequence": "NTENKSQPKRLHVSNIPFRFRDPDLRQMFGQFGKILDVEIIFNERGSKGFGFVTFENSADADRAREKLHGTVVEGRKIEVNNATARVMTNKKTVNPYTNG", "test": "EMSA; HiTS-Eq, 1 nM pool, 10 min; buffer printed only for the single-RNA assays: 10 mM Tris pH 7.5, 150 mM NaCl, 3.4 mM EDTA, 0.001% NP-40, 30 C", "conditions": "tags: His6 N-terminal (pET28a); label: 5' 32P", "summary_of_the_method": "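Purified RbFox RRM, wild type or mutant, was incubated for 10 min in 50 µL with 1 nM of a 5′-radiolabelled RNA pool carrying 7 randomized nucleotides, whose flanks were annealed to DNA oligonucleotides, over a series of increasing protein concentrations. Unbound RNA was resolved on 8% native PAGE, cut out, reverse-transcribed, barcoded by PCR and sequenced on an Illumina HiSeq 2500. Relative association constants were derived from changes in read counts for each RNA species versus the control reaction and normalised to the cognate motif.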"}
{"binder": "B1", "binding signal": "0.0234 KA relative to UGCAUGU"}
{"binder": "B2", "binding signal": "0.0115 KA relative to UGCAUGU"}
{"binder": "B3", "binding signal": "0.00294 KA relative to UGCAUGU"}
{"binder": "B4", "binding signal": "0.00799 KA relative to UGCAUGU"}
{"binder": "B5", "binding signal": "0.00781 KA relative to UGCAUGU"}
{"binder": "B6", "binding signal": "0.00895 KA relative to UGCAUGU"}
{"binder": "B7", "binding signal": "0.00309 KA relative to UGCAUGU"}
{"binder": "B8", "binding signal": "0.00478 KA relative to UGCAUGU"}
{"binder": "B9", "binding signal": "0.00271 KA relative to UGCAUGU"}
{"binder": "B10", "binding signal": "0.0219 KA relative to UGCAUGU"}
{"binder": "B11", "binding signal": "0.00338 KA relative to UGCAUGU"}
{"binder": "B12", "binding signal": "0.0181 KA relative to UGCAUGU"}
{"binder": "B13", "binding signal": "0.0261 KA relative to UGCAUGU"}
{"binder": "B14", "binding signal": "0.00929 KA relative to UGCAUGU"}
{"binder": "B15", "binding signal": "0.0126 KA relative to UGCAUGU"}
{"binder": "B16", "binding signal": "0.00589 KA relative to UGCAUGU"}
{"binder": "B17", "binding signal": "0.00846 KA relative to UGCAUGU"}
{"binder": "B18", "binding signal": "0.0119 KA relative to UGCAUGU"}
{"binder": "B19", "binding signal": "0.018 KA relative to UGCAUGU"}
{"binder": "B20", "binding signal": "0.00336 KA relative to UGCAUGU"}
{"binder": "B21", "binding signal": "0.00307 KA relative to UGCAUGU"}
{"binder": "B22", "binding signal": "0.00988 KA relative to UGCAUGU"}
{"binder": "B23", "binding signal": "0.00429 KA relative to UGCAUGU"}
{"binder": "B24", "binding signal": "0.0112 KA relative to UGCAUGU"}
{"binder": "B25", "binding signal": "0.0124 KA relative to UGCAUGU"}
{"binder": "B26", "binding signal": "0.0149 KA relative to UGCAUGU"}
{"binder": "B27", "binding signal": "0.0106 KA relative to UGCAUGU"}
{"binder": "B28", "binding signal": "0.0066 KA relative to UGCAUGU"}
{"binder": "B29", "binding signal": "0.0125 KA relative to UGCAUGU"}
{"binder": "B30", "binding signal": "0.0205 KA relative to UGCAUGU"}
{"binder": "B31", "binding signal": "0.00732 KA relative to UGCAUGU"}
